# Reference: publication PMC4336329 (PLoS ONE, 2015)
# In all, about 310,000 compounds went through this assay and about 14,000 (4.5%) showed an effect of 50% or more. The effect is printed as a negative number. The list shows a part of the results.
# Target: human ether-à-go-go-related gene (hERG) potassium channel (human, UniProt Q12809)
# Test: primary screen, population patch clamp on CHO cells stably expressing hERG
# 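Note: peak tail current of the secondary pulse compared with the same well before compound.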
# Chain of human ether-à-go-go-related gene (hERG) potassium channel (Q12809 whole entry, looked up): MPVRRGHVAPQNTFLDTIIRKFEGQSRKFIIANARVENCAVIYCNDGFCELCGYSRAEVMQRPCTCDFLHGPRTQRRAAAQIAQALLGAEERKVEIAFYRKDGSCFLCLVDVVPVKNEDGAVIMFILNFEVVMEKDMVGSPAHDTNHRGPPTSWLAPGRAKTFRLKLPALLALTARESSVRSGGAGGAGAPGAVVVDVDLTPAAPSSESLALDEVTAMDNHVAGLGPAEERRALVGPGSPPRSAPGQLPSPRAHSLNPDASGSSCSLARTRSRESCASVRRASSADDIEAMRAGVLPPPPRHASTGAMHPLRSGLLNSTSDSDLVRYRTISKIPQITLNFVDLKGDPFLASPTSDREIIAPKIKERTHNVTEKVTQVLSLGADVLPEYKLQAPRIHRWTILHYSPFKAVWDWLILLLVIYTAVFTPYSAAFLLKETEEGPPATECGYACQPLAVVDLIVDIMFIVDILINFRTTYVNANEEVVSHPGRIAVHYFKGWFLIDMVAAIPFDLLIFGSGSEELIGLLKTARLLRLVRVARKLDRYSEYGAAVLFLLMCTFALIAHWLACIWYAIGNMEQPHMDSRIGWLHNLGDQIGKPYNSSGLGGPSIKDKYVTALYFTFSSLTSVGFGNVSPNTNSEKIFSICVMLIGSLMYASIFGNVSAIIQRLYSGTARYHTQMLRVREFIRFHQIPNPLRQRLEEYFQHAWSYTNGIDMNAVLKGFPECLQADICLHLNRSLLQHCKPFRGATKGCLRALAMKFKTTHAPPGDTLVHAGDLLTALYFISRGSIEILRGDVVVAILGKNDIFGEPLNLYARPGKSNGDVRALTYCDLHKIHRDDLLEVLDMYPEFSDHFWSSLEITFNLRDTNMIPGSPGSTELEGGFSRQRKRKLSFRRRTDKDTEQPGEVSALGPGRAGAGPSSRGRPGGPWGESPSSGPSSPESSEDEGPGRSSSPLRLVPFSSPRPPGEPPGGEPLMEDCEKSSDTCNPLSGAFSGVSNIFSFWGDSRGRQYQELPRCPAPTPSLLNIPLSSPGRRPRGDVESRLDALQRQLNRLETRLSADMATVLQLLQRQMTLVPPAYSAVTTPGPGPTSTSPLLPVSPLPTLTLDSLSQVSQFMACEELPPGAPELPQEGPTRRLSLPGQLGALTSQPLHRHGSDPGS
row,SMILES,"hERG current change (%, negative = inhibition) at 10uM [%]"
1,CC1(C)CC(=O)C(/C=N/n2cnc3ccccc3c2=O)=C(O)C1,12.7
2,CC1CCC(NC(=O)c2cc3ccccc3cc2O)CC1 (stereo not shown),0.709
3,Cc1cc(C)nc(-n2ncc3c2CC(C)CC3=O)n1 (stereo not shown),4.89
4,COc1ccc(CC(NC(C)=O)C(=O)NC2CCN(C(=O)Nc3ccc(Cl)cc3)CC2)cc1OC (stereo not shown),-5.23
5,O=C(CCNS(=O)(=O)c1ccc(Br)cc1)NCc1ccc2c(c1)OCO2,-3.3
6,Cc1ccccc1N(CC(=O)NC1CCCC1)C(=O)C1(C)CC(=O)N=C2C=CC(Cl)=CN21 (stereo not shown),13.4
7,Cc1cc(C(=O)N2CCCC(C(=O)c3ccc4ccccc4c3)C2)n(C)n1 (stereo not shown),-2.06
8,COCC(C)NC(=O)c1cc2cc(OC)ccc2[nH]1 (stereo not shown),15.5
9,O=C(Nc1ccc(S(=O)(=O)NCC2CCCO2)cc1)c1ccc(Cl)cc1[N+](=O)[O-] (stereo not shown),-19.6
10,COc1ccc(N2CCN(CC(=O)NC(=O)NCc3ccco3)CC2)cc1,-9.2
11,Cc1ccc(-c2c(C)n([O-])c3c([n+]2=O)CCC3)o1,9.36
12,COc1ccc(S(=O)(=O)N(CC(=O)NCc2ccncc2)c2ccc(C)cc2)cc1OC,-6.77
13,CC(=O)c1ccccc1NC(=O)CCNC(=O)c1ccco1,20.6
14,N#Cc1c(SCC(N)=O)nc2c(c1-c1ccc(O)cc1)CCCC2,4.9
15,CCNC(=O)NC(=O)C(C)OC(=O)C1CCN(S(=O)(=O)c2ccc(C)c(C)c2)CC1 (stereo not shown),13.5
16,Cc1cc(C(C)C)n2c(nc3ccccc32)c1C#N,15.6
17,CCOc1ccc(N2CC(C(=O)NCCN3C(=O)S/C(=C\c4cccnc4)C3=O)CC2=O)cc1 (stereo not shown),-0.149
18,CC/C(C)=N/N1C(=O)c2ccccc2NC1(C)CC (stereo not shown),9.45
19,Cc1ccc(C(=O)N2CCCC(C(F)(F)F)C2)cc1S(=O)(=O)N1CCCCC1 (stereo not shown),-9.98
20,COc1ccc(NC(=O)CSc2nc3nc(-c4cccs4)cc(C(F)(F)F)c3c(=O)[nH]2)c(OC)c1,-14.5
21,CCSc1nc2ccccc2c(=O)n1CCc1ccc(OC)c(OC)c1,14.9
22,CCOC(=O)N1CCN(C(=O)c2ccc(NS(=O)(=O)c3ccc4[nH]c(=O)[nH]c4c3)cc2)CC1,-2.72

row,SMILES,"hERG current change (%, negative = inhibition) at 10uM [%]"
1,Cc1sc2nc(SCC(=O)c3cccs3)n(Cc3ccco3)c(=O)c2c1C,-11.2
2,O=C(CSc1nc2cc(C(F)(F)F)ccc2n1Cc1ccccc1)NC1CCS(=O)(=O)C1 (stereo not shown),-39.4
3,Cc1cccc(C)c1N1CCN(S(=O)(=O)c2ccc(F)cc2)CC1,2.08
4,Cc1cc(Cl)c2cc3ccccc3cc2n1,3.05
5,Clc1ccc2nc(CSc3ccccc3)cn2c1,-18.5
6,COc1ccc(NS(=O)(=O)c2cc(C)ccc2OC)cc1OC,10.5
7,COc1ccc(C)cc1NS(=O)(=O)c1ccc2c(c1)oc(=O)n2C,16.2
8,COc1ccccc1NC(=O)c1ccc(COc2ccc3c(c2)CCC3)cc1,6.53
9,COc1ccc(NS(=O)(=O)c2cccc(NC(=O)c3ccc(S(=O)(=O)N4CCCCCC4)cc3)c2)cc1,8.25
10,Cc1ccc(NC(=O)CCC(=O)N/N=C/c2cc([N+](=O)[O-])ccc2O)cc1,1.25
11,O=C1OCC/C1=C\c1ccccc1O,2.18
12,CCOc1c(Br)cc(/C=C(\C#N)C(=O)NC2CC2)cc1OC,1.2
13,CC1Cc2ccccc2N1Cc1ccc([N+](=O)[O-])cc1 (stereo not shown),17.4
14,O=C(Nc1cccnc1)Nc1ccccn1,8.4
15,Cc1cc(C)n(CCCNC(=O)c2ccc3c(c2)NC(=O)CS3)n1,-2.48
16,COc1cc(C(=O)NC(=S)Nc2ccc(NC(=O)c3ccco3)cc2)cc(OC)c1OC,-6.61
17,Cc1ccc(CCN2CC(C(=O)NCCCOC(C)C)CC2=O)cc1 (stereo not shown),-8.2
18,CC(C)Oc1cccc(C2NC(=O)c3ccccc3O2)c1 (stereo not shown),7.79
19,c1ccc(-n2cnc3ccccc32)nc1,13.1
20,CC(NC(=O)C1CCCN1C(=O)OCc1ccccc1)c1ccccc1 (stereo not shown),-6.56
21,CCSc1nc2cc(OC)c(OC)cc2c(=O)n1CC,-2.16
22,CC1(NC(=O)N2CCOCC2)CCS(=O)(=O)C1 (stereo not shown),3.52

row,SMILES,"hERG current change (%, negative = inhibition) at 10uM [%]"
1,N#CC1=C(SCC(=O)c2ccccc2)NC2=C(C(=O)CCC2)C1c1ccco1 (stereo not shown),1.93
2,COc1ccc(CN2C(=O)Cc3c2nc(N)c2c(N)nc(N4CCCCC4)c(C#N)c32)cc1,18.6
3,CC1C=CCC2C(=O)N(c3cccc(C(=O)NCc4ccccc4)c3)C(=O)C12 (stereo not shown),0.997
4,CC(CCc1ccccc1)NC(=O)c1cncc(Br)c1 (stereo not shown),-16.6
5,CC(=O)NC(C)Cc1ccccc1 (stereo not shown),-0.103
6,CC(=O)Nc1ccc(OC(=O)N2CCCC2)cc1,-6.82
7,CC(C)CN(C#N)c1nc(N2CCOCC2)nc(N2CCOCC2)n1,-1.58
8,O=C1C(=O)N(CCO)C(c2ccc(Br)cc2)/C1=C(\O)c1ccccc1 (stereo not shown),4.99
9,Cc1cc(/C=C(\C#N)C(=O)NCc2ccco2)c(C)n1C1CCCC1,-2.42
10,CCC(=O)N/C(=N/c1nc(C)cc(C)n1)Nc1ccc(C)cc1,5.51
11,C/C(=N\NC(=O)CCn1nnc2ccccc21)c1ccco1,4.59
12,COc1ccc(/C=N/NC(=O)c2nc(-c3ccccc3)n(-c3ccccc3)n2)cc1OC,1.61
13,CN(C)CC1CCCCC1OC(=O)c1ccc(Cl)cc1 (stereo not shown),-28.5
14,COc1ccc(N2CC(O)=C(c3nc(-c4ccc(F)cc4)cs3)C2=N)cc1,13.4
15,Cc1nc2cc3c(cc2s1)OCO3,12
16,COC(=O)c1nn(-c2nc(-c3ccc(OC)c(OC)c3)cc(C(F)(F)F)n2)cc1[N+](=O)[O-],-17.9
17,CCC1C(=O)N(C)CCc2ccccc21 (stereo not shown),11.4
18,O=C(Nc1ccc(O)cc1)/C(=C\c1cccs1)NC(=O)c1ccccc1,14.5
19,NS(=O)(=O)c1cccc(NC(=O)COC(=O)Cc2ccc(S(=O)(=O)N3CCCCC3)s2)c1,-2.28
20,Cl.NS(=O)(=O)c1cccc(N2CCNCC2)c1,11.7
21,CCCCCN(C(=O)CCC(=O)OCc1ccccc1C(F)(F)F)c1c(N)n(CCCC)c(=O)[nH]c1=O,-24.7
22,COc1ccc(C(=O)Nn2c(CC(C)C)nc3cc(OC)c(OC)cc3c2=O)c(OC)c1,-9.77

row,SMILES,"hERG current change (%, negative = inhibition) at 10uM [%]"
1,O=C(NC(=S)N1CCc2ccccc21)C1CCC1,20.8
2,O=C1CC(NS(=O)(=O)c2ccc(F)cc2)CN1c1ccc2c(c1)OCCO2 (stereo not shown),-12.4
3,Cn1c(=O)c2c(nc(-n3ccnc3)n2Cc2ccccc2)n(C)c1=O,6.89
4,COc1ccc(C)c(NC(=O)C2CC(=O)NC3=C2C(=O)CCC3)c1 (stereo not shown),-6
5,O=C(NCCN1CCCCC1)Nc1ccc(F)cc1,-13.1
6,COc1ccc(S(=O)(=O)N2C3CCC2CC(NC(=O)NC2CCCCC2)C3)cc1 (stereo not shown),1.2
7,Cc1nc2ccc(S(=O)(=O)NC(CC(C)C)C(=O)O)cc2s1 (stereo not shown),22.3
8,CCc1c(C)nc2c(Br)cccc2c1SCCC#N,-11.5
9,COC(C(=O)N/N=C(\C)CC(=O)Nc1ccc(N(C)C)cc1)c1ccccc1 (stereo not shown),15.3
10,CCOc1cccc(/C=C2\NC(=S)N(c3ccccc3)C2=O)c1O,22.2
11,O=C(COC(=O)c1ccc(O)cc1O)NC1CC1,12.2
12,COc1ccc(OC)c(S(=O)(=O)N(C)CC(=O)N2CCN(c3ccccc3)CC2)c1,-31.9
13,CSc1ncccc1C(=O)NCc1ccccc1Cl,-7.25
14,CCOC(=O)c1c(NC(=O)Cn2cnc([N+](=O)[O-])n2)sc2c1CCCC2,10.1
15,COC(=O)c1ccc(C23CC4(C2)[C@H](CN(C)[C@@H]4c2ccccc2)C3c2ccc(Cl)nc2)cc1 (stereo partly shown),-28
16,Cc1cccc(OCc2n(CC(=O)OC3CC(C)CCC3C(C)C)c3ccccc3[n+]2C)c1.[Cl-] (stereo not shown),-75
17,CC(=O)NCCNC(=O)c1ccc(CSc2nc3ccccc3s2)cc1,-2.51
18,Cc1nc(SCC(=O)c2cc3ccccc3oc2=O)c(C#N)c(-c2cccs2)c1C(=O)Nc1ccccc1,14.8
19,CCCc1nc2sc3c(c2c(=O)n1NC(=O)CCC(=O)OC)CCCC3,-6.97
20,COc1ccc(CN(C)CC(=O)Nc2cccc(S(N)(=O)=O)c2)c(OC)c1OC,4.19
21,COc1ccc(NC(=O)CSCc2ccc(C)cc2)cc1,-0.289
22,Cn1c(=O)c2ncn(CC(=O)NCCOCc3ccccc3Cl)c2n(C)c1=O,5.02
